Test results reported in article PMC3358469 (Biomaterials, 2012).

Target: the molecule itself
Test: cryo-EM structure

B1: P22 F170A polyheads (nanotubes), helical assemblies of coat protein with the F170A substitution (complex)
chain: not shown
- binding result: binds
